# Measured values from PubChem BioAssay AID624417 (National Center for Advancing Translational Sciences (NCATS), 2012).
# About 6,400 (1.6%) of roughly 410,000 compounds were called active. This list was built around the results that the source calls inconclusive (neither active nor inactive); the mix of calls is not that of the screen. Calls come from the whole dose curve; as a rule, active = well fitted inhibition curve with a large enough effect; inconclusive = small, poorly fitted or top-dose-only effect; inactive = no such curve, though single readings can be large or run the other way. Potencies of inconclusive entries are left out as doubtful fits.
# Biological target: Glucagon-like peptide 1 receptor (Homo sapiens) (UniProt P43220)
# Chain of UniProt P43220 (P43220 whole entry, looked up): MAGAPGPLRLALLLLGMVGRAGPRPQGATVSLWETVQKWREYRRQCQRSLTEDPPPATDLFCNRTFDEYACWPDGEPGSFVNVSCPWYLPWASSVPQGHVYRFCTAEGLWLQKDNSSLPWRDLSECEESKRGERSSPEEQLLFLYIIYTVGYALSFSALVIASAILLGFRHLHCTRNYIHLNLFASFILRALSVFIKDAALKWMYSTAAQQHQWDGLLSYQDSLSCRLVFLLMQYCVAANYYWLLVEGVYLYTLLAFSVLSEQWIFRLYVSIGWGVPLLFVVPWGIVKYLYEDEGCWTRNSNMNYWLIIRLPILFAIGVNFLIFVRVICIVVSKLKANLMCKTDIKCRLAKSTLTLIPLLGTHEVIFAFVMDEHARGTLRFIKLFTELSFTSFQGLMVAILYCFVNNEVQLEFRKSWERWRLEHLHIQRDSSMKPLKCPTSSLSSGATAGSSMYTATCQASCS
# Experiment: qHTS of GLP-1 Receptor Inverse Agonists (Inhibition Mode); note: nearly all actives have a fitted effect of over 55% in size
# Conditions: HEK293 GLP-1R CRE-luciferase, luminescence, 24 h, GLP-1R form is constitutively active; activity change, negative = inhibition: at 38.3 µM (top of the series) unless noted
# Summary of the method: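 Luminescence readout: a drop in cAMP-driven luciferase signal flags inverse agonism at a constitutively active GLP-1R stably expressed in HEK293. Compound exposure lasted 24 hr at 37 deg C, 5% CO2.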
# % is set by controls: 0 for no effect and ±100 for the full control effect; potency is the fitted concentration of half-maximal effect; tags give direction and shape of the fitted curve.
SMILES,"activity change, negative = inhibition",Potency
CCn1c(C)[n+](CC)c2ccc(C(=O)N(C)c3ccccc3)cc21,inactive: -3.26%,
CCN(C[C@H]1N[C@@](Cc2ccccc2)(C(=O)OC)[C@H]2C(=O)N(Cc3ccccc3)C(=O)[C@@H]12)C(=O)Nc1ccc(C)cc1,,"inconclusive [inhibitor, single point]"
CC(=O)Nc1cccc(NC(=O)c2cccc(OCc3ccccc3)c2)c1,,"inconclusive [inhibitor, partial curve, poor fit]"
c1ccc(CCN(Cc2ccccc2)Cc2nc(C3CC3)no2)cc1,,"inconclusive [inhibitor, single point]"
O=C(COc1ccc(S(=O)(=O)NC2CCCCC2)cc1Cl)NCc1ccc2c(c1)OCO2,,"inconclusive [inhibitor, partial curve, poor fit]"
CC(C)C[C@H](NC(=O)c1nc[nH]c1C(=O)NCC(=O)OCc1ccccc1)C(=O)OCc1ccccc1,inactive: 0.251%,
Cc1ccccc1NC(=S)N(Cc1cccs1)C1CCCC1,inactive: -25.9%,
CC(C)c1ccc(S(=O)(=O)N2CCN(C(=O)CCNC(=O)Nc3ccccc3)CC2)cc1,,"inconclusive [inhibitor, single point]"
Cc1cnc(-c2nnc(N(C)C(=O)C3CCCO3)s2)cn1 (centres undefined),inactive: 29.2%,
O=C(CC1NCCc2ccccc21)Nc1cccc(Cl)c1 (centres undefined),,"inconclusive [inhibitor, single point]"
O=[N+]([O-])c1cccc(C=NNc2ccc3ccccc3n2)c1O,,"inconclusive [inhibitor, full curve, poor fit]"
Cc1c(Cl)cccc1NC(=O)CN1CCC(C(O)(c2ccccc2)c2ccccc2)CC1,,"inconclusive [inhibitor, single point]"
Cc1ccc(NC(=O)C2CCCN(S(=O)(=O)c3cn(C(C)C)cn3)C2)c(C)c1 (centres undefined),inactive: 10.2%,
CC(C)OC(=O)c1c(NC(=O)C2c3ccccc3Oc3ccccc32)sc2c1CCCC2,inactive: -5.73%,
CCC1CCCCN1S(=O)(=O)Cc1ccccc1Cl (centres undefined),,"inconclusive [inhibitor, full curve]"
COc1ccccc1CNC(=O)c1cc(C2CC2)nc2c1cnn2C(C)C,,"inconclusive [inhibitor, single point]"
Cc1cc(C)nc(N/N=C/c2ccccc2)n1,inactive: 0%,
CCOC(=O)CCCCC(=O)c1[nH]c(=O)[nH]c1CSc1nc2ccccc2[nH]1,inactive: 1.65%,
CCN(C(=O)CSc1nc2ccccc2[nH]1)c1ccccc1,,"inconclusive [inhibitor, partial curve]"
C/C=C/c1cc(CN2CCN(c3ccc(OC)cc3)CC2)c(O)c(OC)c1,,"inconclusive [inhibitor, partial curve]"
Cc1ccc(OCc2cc(C(=O)N(C)CCc3ccccc3)no2)cc1C,,"inconclusive [inhibitor, single point]"
Cc1cc(C)n(-c2cc(C(C)(C)C)nc3c(-c4ccc(Cl)cc4)cnn23)n1,,"inconclusive [inhibitor, single point]"

SMILES,"activity change, negative = inhibition",Potency
O=C(Nc1ccc2c(c1)OCO2)c1ccc2c(c1)OCO2,,"inconclusive [inhibitor, partial curve]"
CCCCN(C)CCNC(=O)CSCc1ccc(C)cc1,,"inconclusive [inhibitor, full curve, poor fit]"
N#CCCN(Cc1ccccc1)C(CCc1ccccc1)C(=O)NC1CCCCC1 (centres undefined),,"inconclusive [inhibitor, single point]"
CCOC(=O)Cc1c(Sc2ccccc2)c2ccccc2n1C,,"inconclusive [inhibitor, partial curve]"
Cc1cc(Br)c2[nH]cc(CCNC(=O)c3ccco3)c2c1,,"inconclusive [inhibitor, single point]"
Cc1ccc(CN2CCSc3ccc(C(=O)NCC(C)c4ccccc4)cc32)cc1 (centres undefined),,"inconclusive [inhibitor, single point]"
CCCCc1c(-c2ccccc2OC)ncn1Cc1ccc(-c2ccccc2)cc1,,"inconclusive [inhibitor, single point]"
CCc1ccc(N2C=C(C(=O)OC)C(c3cccc4ccccc34)C(C#N)=C2N)cc1 (centres undefined),,active: 1 µM
CC(C)n1cc(/C=C2\NC(=O)N(c3cccc(Cl)c3)C2=O)c2ccccc21,,active: 3.98 µM
Cc1cc2cc(CN(Cc3cccs3)C(=S)NCC3CCCO3)c(=O)[nH]c2cc1C (centres undefined),,"inconclusive [inhibitor, single point]"
Cc1nc2ccccn2c1C(=O)CSc1cccc(Cl)c1,,"inconclusive [inhibitor, single point]"
Cn1cc(/C=C/C(=O)c2ccccc2)c2ccccc21,,"inconclusive [inhibitor, single point]"
CC(C)c1ccc(N2C(=O)C3C4C=CC(CC4)C3C2=O)cc1 (centres undefined),,"inconclusive [inhibitor, partial curve, poor fit]"
O=C(Nc1ccc(SC(F)(F)F)cc1)c1ccccn1,,"inconclusive [inhibitor, single point]"
CCOC(=O)c1ccc(NC(=S)N2CCCC(C(=O)OCC)C2)cc1 (centres undefined),,"inconclusive [inhibitor, single point]"
OCCNc1cc(-n2nc(-c3ccccc3)cc2-c2ccccc2)ncn1,,"inconclusive [inhibitor, partial curve, poor fit]"
CC1Cc2ccccc2N1C(=O)COC(=O)C1(c2ccccc2F)CCCC1 (centres undefined),,"inconclusive [inhibitor, partial curve, poor fit]"
O=C(c1cc(-c2ccco2)on1)N1CCN(C(c2ccccc2)c2ccccc2)CC1,,"inconclusive [inhibitor, partial curve, poor fit]"
CC(=O)c1ccc(N2CCN(C(=O)c3cn(Cc4ccccc4)nc3-c3cccnc3)CC2)c(F)c1,inactive: 5.79%,
C[C@@H]1CCCCO[C@H](CN(C)C(=O)Cc2ccccc2)[C@@H](C)CN([C@H](C)CO)C(=O)c2cc(NC(=O)Nc3ccccc3)ccc2O1,,"inconclusive [inhibitor, single point]"
COc1cc(CN2CCN(Cc3ccc(C(F)(F)F)cc3)CC2)cc(OC)c1OC,,"inconclusive [inhibitor, single point]"
Cc1ccc(N(C)C(=O)C2CCN(S(=O)(=O)c3c(C)noc3/C=C/c3c(C)cc(C)cc3C)CC2)cc1,,"inconclusive [inhibitor, partial curve, poor fit]"

SMILES,"activity change, negative = inhibition",Potency
Cc1ccc(N=C(NOCc2ccc(Cl)cc2Cl)c2nonc2N)c(C)c1,,"inconclusive [inhibitor, partial curve, poor fit]"
C#CC(C)(CC)NC(=O)c1cc2cccc(CC=C)c2oc1=O (centres undefined),,"inconclusive [inhibitor, partial curve, poor fit]"
O=C(/C=C/c1cccs1)Nc1ccc(N2CCOCC2)c(S(=O)(=O)Nc2ccccc2Cl)c1,,"inconclusive [inhibitor, single point]"
O=C(Nc1ccc(N2CCCCC2)c(Cl)c1)c1cccnc1,,"inconclusive [inhibitor, partial curve, poor fit]"
CC(C)n1nccc1N(Cc1ccc(Cl)cc1)S(=O)(=O)c1ccccc1,,"inconclusive [inhibitor, partial curve, poor fit]"
COCCCNC(=O)c1ccc(-n2nc(C(F)(F)F)cc2-c2cccs2)cc1,,"inconclusive [inhibitor, single point]"
CCOC(=O)c1[nH]c2ccc(OC)cc2c1NC(=O)CN1CCSCC1,,"inconclusive [inhibitor, partial curve]"
COc1ccc(Br)cc1S(=O)(=O)N1CCCc2ccccc21,,"inconclusive [inhibitor, single point]"
CCOc1ccc(CN2CCC(Cc3ccccc3)CC2)cc1,inactive: -14.8%,
CC(=O)Nc1ccc(S(=O)(=O)NCCSCc2cccc(Cl)c2)cc1,,"inconclusive [inhibitor, single point]"
CC(C)(C)c1cc(OC(=O)C2CCCC2)ccc1O,inactive: 6.57%,
CCc1ccc(CN2CCCC(CNS(=O)(=O)c3ccc(OC)cc3)C2)cc1 (centres undefined),,"inconclusive [inhibitor, partial curve, poor fit]"
Cc1ccc(NC(=O)c2cc([N+](=O)[O-])ccc2Cl)c(O)c1,,"inconclusive [inhibitor, single point]"
CCOC(=O)c1cccc(Nc2cc(-c3ccccc3)ncn2)c1,,"inconclusive [inhibitor, single point]"
COc1ccc(-c2c3c(=O)n(C)c(=O)n(C)c3cn2C2CCCCC2)cc1,,"inconclusive [inhibitor, single point]"
CCN(Cc1ccccc1)S(=O)(=O)c1cc(C(=O)NC2CCCCCC2)ccc1OC,,active: 2.24 µM
O=S1(=O)CCN(Cc2ccccc2)CC1,inactive: 12.2%,
OC[C@@H]1[C@@H](c2ccc(Cl)cc2)C(c2ccc(F)cc2)=NN1c1ccccc1,,"inconclusive [inhibitor, single point]"
Cc1ccc(CNC(=O)CN2C(=O)NC(C)(c3ccc(Cl)cc3)C2=O)cc1 (centres undefined),,"inconclusive [inhibitor, single point]"
Cc1ccc2nc(-c3sc4nc(C)ccc4c3N)[nH]c2c1,,"inconclusive [inhibitor, single point]"
